Data as given in publication PMC10331583, “Control of fibrosis with enhanced safety via asymmetric inhibition of prolyl‐tRNA synthetase 1” (EMBO Molecular Medicine, 2023).
Where “and” joins values, the source holds several entries; their conditions need not be identical. Equal values may be shown once. The source gives many values for each of these; only a part stands here.

Legend:
WI‐26 VA4 cells [1] = assay: Collagen ELISA (secreted pro‐collagen I)
WI‐26 VA4 cells [2] = assay: CellTiter‐Glo assay (cytotoxicity)
[3] = 0.1 nM, Experiment #1, replicates, 0.0001 µM
[4] = 0.1 nM, Experiment #2, replicates, 0.0001 µM
[5] = 0.3 nM, Experiment #1, replicates, 0.0003 µM
[6] = 0.3 nM, Experiment #2, replicates, 0.0003 µM
[7] = 1 nM, Experiment #1, replicates, 0.001 µM
[8] = 1 nM, Experiment #2, replicates, 0.001 µM
[9] = 3 nM, Experiment #1, replicates, 0.003 µM
[10] = 3 nM, Experiment #2, replicates, 0.003 µM
[11] = 10 nM, Experiment #1, replicates, 0.01 µM
[12] = 10 nM, Experiment #2, replicates, 0.01 µM
[13] = 30 nM, Experiment #1, replicates, 0.03 µM
[14] = 30 nM, Experiment #2, replicates, 0.03 µM
[15] = 100 nM, Experiment #1, replicates, 0.1 µM
[16] = 100 nM, Experiment #2, replicates, 0.1 µM
[17] = 300 nM, Experiment #1, replicates, 0.3 µM
[18] = 300 nM, Experiment #2, replicates, 0.3 µM
[19] = 1000 nM, Experiment #1, replicates, 1 µM
[20] = 1000 nM, Experiment #2, replicates, 1 µM
[21] = 3000 nM, Experiment #1, replicates, 3 µM
[22] = 3000 nM, Experiment #2, replicates, 3 µM
[23] = 10000 nM, Experiment #1, replicates, 10 µM
[24] = 10000 nM, Experiment #2, replicates, 10 µM
[25] = 30000 nM, Experiment #1, replicates, 30 µM
[26] = 30000 nM, Experiment #2, replicates, 30 µM
[27] = 100000 nM, Experiment #1, replicates, 100 µM
[28] = 100000 nM, Experiment #2, replicates, 100 µM

Structure (SMILES) | CellTiter-Glo % of control (WI‐26 VA4 cells [2]; [3]) | CellTiter-Glo % of control (WI‐26 VA4 cells [2]; [4]) | CellTiter-Glo % of control (WI‐26 VA4 cells [2]; [5]) | CellTiter-Glo % of control (WI‐26 VA4 cells [2]; [6]) | CellTiter-Glo % of control (WI‐26 VA4 cells [2]; [7]) | CellTiter-Glo % of control (WI‐26 VA4 cells [2]; [8]) | CellTiter-Glo % of control (WI‐26 VA4 cells [2]; [9]) | CellTiter-Glo % of control (WI‐26 VA4 cells [2]; [10]) | CellTiter-Glo % of control (WI‐26 VA4 cells [2]; [11]) | CellTiter-Glo % of control (WI‐26 VA4 cells [2]; [12]) | CellTiter-Glo % of control (WI‐26 VA4 cells [2]; [13]) | CellTiter-Glo % of control (WI‐26 VA4 cells [2]; [14]) | CellTiter-Glo % of control (WI‐26 VA4 cells [2]; [15]) | CellTiter-Glo % of control (WI‐26 VA4 cells [2]; [16]) | CellTiter-Glo % of control (WI‐26 VA4 cells [2]; [17]) | CellTiter-Glo % of control (WI‐26 VA4 cells [2]; [18]) | CellTiter-Glo % of control (WI‐26 VA4 cells [2]; [19]) | CellTiter-Glo % of control (WI‐26 VA4 cells [2]; [20]) | CellTiter-Glo % of control (WI‐26 VA4 cells [2]; [21]) | CellTiter-Glo % of control (WI‐26 VA4 cells [2]; [22]) | further results
Cc1c(Br)cnc2c1ncn2CC(=O)C[C@H]1NCCC[C@@H]1O [DWN11761] | 107.81 % of control | 104.50 % of control | 105.27 % of control | 100.60 % of control | 100.46 % of control | 87.21 % of control | 88.53 % of control | 47.90 % of control and 93.38 % of control | 102.43 % of control | 60.15 % of control and 98.36 % of control | 96.29 % of control | 59.44 % of control and 95.37 % of control | 71.08 % of control | 48.50 % of control and 72.89 % of control | 58.20 % of control | 30.26 % of control and 61.80 % of control | 25.00 % of control | 20.81 % of control | 34.97 % of control | 25.47 % of control | Collagen, % of control (single replicates per experiment) (WI‐26 VA4 cells [1]; 30 nM, 0.03 µM): 65.47 % of control and 66.67 % of control and 85.05 % of control and 102.61 % of control; Collagen, % of control (single replicates per experiment) (WI‐26 VA4 cells [1]; 100 nM, 0.1 µM): 19.67 % of control and 19.95 % of control and 18.05 % of control and 22.16 % of control and 23.43 % of control; Collagen, % of control (single replicates per experiment) (WI‐26 VA4 cells [1]; 1000 nM, 1 µM): 2.12 % of control and 2.08 % of control and 2.14 % of control and 1.97 % of control and 0.60 % of control and 0.27 % of control; Collagen, % of control (single replicates per experiment) (WI‐26 VA4 cells [1]; 3000 nM, 3 µM): 2.07 % of control and 1.61 % of control and 2.34 % of control and 1.16 % of control and 0.85 % of control and 0.73 % of control; CellTiter-Glo % of control (WI‐26 VA4 cells [2]; [23]): 11.48 % of control; CellTiter-Glo % of control (WI‐26 VA4 cells [2]; [24]): 10.15 % of control; CellTiter-Glo % of control (WI‐26 VA4 cells [2]; [25]): 6.71 % of control; CellTiter-Glo % of control (WI‐26 VA4 cells [2]; [26]): 5.15 % of control; CellTiter-Glo % of control (WI‐26 VA4 cells [2]; [27]): 2.27 % of control; CellTiter-Glo % of control (WI‐26 VA4 cells [2]; [28]): 1.39 % of control
O=C(C[C@H]1NCCC[C@@H]1O)Cn1cnc2ccc(-c3cccc(F)c3)cc21 [DWN11251] | 111.06 % of control | 117.85 % of control | 115.56 % of control | 118.49 % of control | 114.20 % of control | 105.36 % of control | 103.10 % of control | 110.35 % of control | 105.61 % of control | 126.72 % of control | 114.94 % of control | 127.68 % of control | 113.32 % of control | 123.91 % of control | 92.05 % of control | 109.66 % of control | 75.58 % of control | 81.49 % of control | 37.95 % of control | 45.13 % of control | Collagen, % of control (single replicates per experiment) (WI‐26 VA4 cells [1]; 30000 nM, 30 µM): 1.95 % of control and 2.55 % of control and 3.39 % of control and 3.33 % of control; CellTiter-Glo % of control (WI‐26 VA4 cells [2]; [23]): 31.08 % of control; CellTiter-Glo % of control (WI‐26 VA4 cells [2]; [24]): 28.21 % of control; CellTiter-Glo % of control (WI‐26 VA4 cells [2]; [25]): 18.88 % of control; CellTiter-Glo % of control (WI‐26 VA4 cells [2]; [26]): 14.47 % of control; CellTiter-Glo % of control (WI‐26 VA4 cells [2]; [27]): 1.70 % of control; CellTiter-Glo % of control (WI‐26 VA4 cells [2]; [28]): 0.67 % of control
